PubChem BioAssay AID624417 (National Center for Advancing Translational Sciences (NCATS), 2012)
Among all 410,000 compounds or so, about 6,400 (1.6%) were called active. The shares of active, inactive and inconclusive entries below differ from those in the screen. The call rests on the fitted dose curve; in most records, active means well fitted inhibition curve with a large enough effect; inconclusive means small, poorly fitted or top-dose-only effect; inactive means no such curve, though single readings can be large or run the other way. Potencies of inconclusive entries are left out as doubtful fits.

Molecular target: Glucagon-like peptide 1 receptor (Homo sapiens) (UniProt P43220)
Experiment: qHTS of GLP-1 Receptor Inverse Agonists (Inhibition Mode); further: nearly all actives have a fitted effect of over 55% in size
Conditions: HEK293 GLP-1R CRE-luciferase, luminescence, 24 h, GLP-1R form is constitutively active; series mostly up to 38.3 µM
Method in brief: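 HEK293 cells stably co-expressing constitutively active GLP-1R and a cAMP-responsive luciferase reporter were seeded in DMEM with 10% Nu serum, given compounds after 12 h, and incubated 24 h at 37 deg C. Luminescence was then read.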
Potency means the concentration at half of the fitted maximal effect; tags describe the fitted curve by direction and shape.

Sequence of UniProt P43220 (P43220 whole entry, looked up): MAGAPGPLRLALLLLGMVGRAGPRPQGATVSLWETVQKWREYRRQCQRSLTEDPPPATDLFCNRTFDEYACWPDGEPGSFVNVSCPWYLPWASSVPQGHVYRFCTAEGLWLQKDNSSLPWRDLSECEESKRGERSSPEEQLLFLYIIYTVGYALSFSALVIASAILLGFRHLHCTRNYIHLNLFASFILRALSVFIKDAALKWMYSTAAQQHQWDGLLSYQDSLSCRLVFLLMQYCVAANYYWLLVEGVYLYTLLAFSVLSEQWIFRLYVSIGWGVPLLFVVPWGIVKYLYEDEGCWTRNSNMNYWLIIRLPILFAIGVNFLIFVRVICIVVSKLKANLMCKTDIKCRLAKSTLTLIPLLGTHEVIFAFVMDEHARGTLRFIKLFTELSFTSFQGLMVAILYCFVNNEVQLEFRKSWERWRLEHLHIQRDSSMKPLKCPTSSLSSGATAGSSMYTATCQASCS

| SMILES | Potency |
| --- | --- |
| Cc1cc(NC(=O)COC(=O)CCS(=O)(=O)c2ccc(C)c(C)c2)no1 | inconclusive [inhibitor, single point] |
| CC1(C(=O)NCC2CC2)Cc2c(-c3cccc(C(F)(F)F)c3)ccnc2O1 (centres undefined) | inconclusive [inhibitor, full curve, poor fit] |
| CCCC[C@@H]1Cc2[nH][nH]c(=O)c2[C@@H](c2ccc(Cl)cc2)O1 | inconclusive [inhibitor, partial curve, poor fit] |
| CCOC(=O)C1=C(CN2CCSCC2)NC(=O)NC1c1ccc2c(c1)OCO2 (centres undefined) | inactive |
| Clc1ccccc1C1Nc2cccc3cccc(c23)N1 | inactive |
| c1ccc(CO/N=C(\c2ccc(C3CC3)nc2)C2CC2)cc1 | active: 7.94 µM |
| CCCc1cnc(N2CCN(C(=O)c3ccc(F)cc3)CC2)nc1 | inconclusive [inhibitor, partial curve, poor fit] |
| O=C(NNC(=O)c1ccccc1O)c1ccc(-c2ccc([N+](=O)[O-])cc2)o1 | inconclusive [inhibitor, single point] |
| Cc1nc(N2CCOCC2)nc(N2CCC(C)CC2)c1[N+](=O)[O-] | inconclusive [inhibitor, single point] |
| CC(=O)Nc1ccc(NC(=O)c2cc(-c3ccccc3)nc3ccccc23)cc1 | inconclusive [inhibitor, partial curve, poor fit] |
| Cc1cc(NC(=O)c2sccc2C)n(-c2nc3ccccc3[nH]2)n1 | inconclusive [inhibitor, single point] |
| Cc1ccc(C(=O)Nc2ccc(N3CCN(C(=O)c4ccco4)CC3)cc2)c(Cl)c1 | inconclusive [inhibitor, single point] |
| C#CCOc1ccc2ccccc2c1/C=C(/C#N)c1ccc(C(=O)O)cc1 | inconclusive [inhibitor, single point] |
| N#CC(C#N)=NNc1ccc2cn[nH]c2c1 | inconclusive [inhibitor, full curve, poor fit] |
| Cc1ccc(-n2ncc3c(N4CCCCCC4)ncnc32)cc1C | inconclusive [inhibitor, full curve, poor fit] |
| O=C(COc1ccccc1)N1CCN(c2ncnc3c2cnn3-c2ccccc2)CC1 | inconclusive [inhibitor, partial curve, poor fit] |
| CCOc1cccc(/C=C/c2ccc3cccc(O)c3n2)c1OC | inconclusive [inhibitor, single point] |
| COC(=O)c1[nH]c2cccc(OC)c2c1NC(=O)CCN1CCN(c2ccccc2OC)CC1 | inconclusive [inhibitor, single point] |
| CN(C)CCCN(C(=O)c1ccc(S(=O)(=O)N2CCCCCC2)cc1)c1nc2c(F)cccc2s1 | inconclusive [inhibitor, single point] |
| COc1ccc(C(=O)N2CCCCC2c2cc(C(=O)Nc3ccc(F)c(Cl)c3)no2)cc1 (centres undefined) | inconclusive [inhibitor, partial curve, poor fit] |

| SMILES | Potency |
| --- | --- |
| CCOc1ccc(C)cc1S(=O)(=O)NC1CCCCCC1 | inconclusive [inhibitor, single point] |
| CCN(CC)c1ccc(/C=N/NC(=O)c2nnn(-c3nonc3N)c2-c2ccc(C)cc2)cc1 | inconclusive [inhibitor, single point] |
| O=C(Cc1ccccc1)Nc1ccc(NC(=O)c2ccccc2)nc1 | inconclusive [inhibitor, single point] |
| CCc1cccc(C)c1NC(=S)N(CCN(C)C)C(C)c1ccco1 (centres undefined) | inconclusive [inhibitor, single point] |
| O=[N+]([O-])c1ccc(Oc2cccc(F)c2)c2ccncc12 | inconclusive [inhibitor, single point] |
| Clc1cccc(Nc2ncnc3c2cnn3-c2ccccc2)c1 | inconclusive [inhibitor, single point] |
| CCc1ccccc1NC(=O)CN1C(=O)COc2ccc(S(=O)(=O)N3CCCCCC3)cc21 | inactive |
| Cc1ccc(-c2cc(C(=O)Nc3ccc(S(=O)(=O)Nc4onc(C)c4C)cc3)c3ccccc3n2)cc1 | inconclusive [inhibitor, full curve] |
| CC1CCC2(CC1)NC(=S)N(c1ccccc1)N2 (centres undefined) | inconclusive [inhibitor, partial curve, poor fit] |
| Cc1c(C(=O)C(=O)N2c3ccccc3CC2C)c2ccccc2n1C (centres undefined) | inconclusive [inhibitor, partial curve, poor fit] |
| Brc1ccccc1OCCCOc1cccc2cccnc12 | inconclusive [inhibitor, single point] |
| N#C/C(=C\c1ccccc1)C(=O)NNS(=O)(=O)c1cccc([N+](=O)[O-])c1 | inactive |
| COc1ccccc1CNC(=O)c1ccc2c(c1)N(Cc1ccc(C)cc1)CCS2 | inconclusive [inhibitor, partial curve, poor fit] |
| CCCCN1CNC(=S)N(CCc2ccccc2)C1 | inconclusive [inhibitor, single point] |
| Cc1ccc(C)c(C(C)NC(=S)NCc2ccc(F)cc2)c1 (centres undefined) | inconclusive [inhibitor, partial curve, poor fit] |
| Clc1cccc(CSc2ncn(-c3ccccc3)n2)c1 | inconclusive [inhibitor, single point] |
| N#CCC(=O)Nc1ccc(C(=O)NCCC(c2ccccc2)c2ccccc2)cc1 | inconclusive [inhibitor, single point] |
| COc1cccc(/C=N/NC(=O)c2ccc([N+](=O)[O-])cc2Cl)c1O | inconclusive [inhibitor, full curve, poor fit] |
| Cc1cc(C)nc(SC2CCCCC2NS(=O)(=O)c2ccccc2)n1 (centres undefined) | inconclusive [inhibitor, single point] |
